Laboratory results: US20130123253A1, “MODULATORS OF CENTRAL NERVOUS SYSTEM NEUROTRANSMITTERS” (HUMAN BIOMOLECULAR RESEARCH INSTITUTE, priority 2004, published 2013)
“And” between values parts separate entries of the source, which are not always exact repeats. Equal entries are not always repeated. Where two headings read alike, the source gives them in different places. One block for each compound: values may come before it.

Key:
[1] = target: T1, human dopamine transporter (hDAT) (Homo sapiens, UniProt Q01959); test: Inhibition of [125I]RTI-55 binding in HEK-hDAT cell membranes; set-up: expressed in transfected cells
[2] = target: T1, human dopamine transporter (hDAT); details: for IC50: read-out: Reuptake (IC50, nM) hDAT; for potency at blocking hDAT reuptake: text of Example 28
[3] = target: T2, human norepinephrine transporter (hNET) (Homo sapiens, UniProt P23975); details: for IC50: read-out: Reuptake (IC50, nM) hNET
[4] = target: T2, human norepinephrine transporter (hNET); test: Inhibition of radioligand binding in HEK-hNET cell membranes; set-up: expressed in transfected cells
[5] = target: T2, human norepinephrine transporter (hNET); test: cell-based
[6] = target: T1, human dopamine transporter (hDAT); test: cell-based
[7] = Table 9, mean ± SEM, read-out: Binding (Ki, nM) hDAT
[8] = read-out: Binding (Ki, nM) hDAT
[9] = read-out: Binding (Ki, nM) hNET
[10] = Table 9, mean ± SEM, read-out: Binding (Ki, nM) hNET
[11] = Reuptake (kup, nM) hNET, Table 2
[12] = Table 2, read-out: Binding (ki, nM) hDAT
[13] = Table 2, read-out: Binding (ki, nM) hNET
[14] = Reuptake (kup, nM) hDAT, Table 2

T1 sequence (Q01959 whole entry): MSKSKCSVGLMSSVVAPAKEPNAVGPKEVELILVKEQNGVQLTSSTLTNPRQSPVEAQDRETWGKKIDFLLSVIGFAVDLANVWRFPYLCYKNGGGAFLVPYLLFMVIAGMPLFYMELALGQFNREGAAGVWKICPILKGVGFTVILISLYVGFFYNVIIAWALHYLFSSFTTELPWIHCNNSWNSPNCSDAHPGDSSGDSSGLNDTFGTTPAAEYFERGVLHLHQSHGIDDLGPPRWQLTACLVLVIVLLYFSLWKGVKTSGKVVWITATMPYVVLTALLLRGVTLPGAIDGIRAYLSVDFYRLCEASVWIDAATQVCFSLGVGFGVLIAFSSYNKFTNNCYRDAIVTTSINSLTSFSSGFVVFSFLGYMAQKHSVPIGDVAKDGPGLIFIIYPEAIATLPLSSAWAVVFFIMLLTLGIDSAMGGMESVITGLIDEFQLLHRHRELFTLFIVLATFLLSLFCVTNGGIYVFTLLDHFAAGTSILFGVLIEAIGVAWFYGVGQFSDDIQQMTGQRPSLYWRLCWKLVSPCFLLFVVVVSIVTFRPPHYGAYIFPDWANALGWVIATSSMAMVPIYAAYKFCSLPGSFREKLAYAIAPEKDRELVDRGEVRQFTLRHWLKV
T2 sequence (P23975 whole entry): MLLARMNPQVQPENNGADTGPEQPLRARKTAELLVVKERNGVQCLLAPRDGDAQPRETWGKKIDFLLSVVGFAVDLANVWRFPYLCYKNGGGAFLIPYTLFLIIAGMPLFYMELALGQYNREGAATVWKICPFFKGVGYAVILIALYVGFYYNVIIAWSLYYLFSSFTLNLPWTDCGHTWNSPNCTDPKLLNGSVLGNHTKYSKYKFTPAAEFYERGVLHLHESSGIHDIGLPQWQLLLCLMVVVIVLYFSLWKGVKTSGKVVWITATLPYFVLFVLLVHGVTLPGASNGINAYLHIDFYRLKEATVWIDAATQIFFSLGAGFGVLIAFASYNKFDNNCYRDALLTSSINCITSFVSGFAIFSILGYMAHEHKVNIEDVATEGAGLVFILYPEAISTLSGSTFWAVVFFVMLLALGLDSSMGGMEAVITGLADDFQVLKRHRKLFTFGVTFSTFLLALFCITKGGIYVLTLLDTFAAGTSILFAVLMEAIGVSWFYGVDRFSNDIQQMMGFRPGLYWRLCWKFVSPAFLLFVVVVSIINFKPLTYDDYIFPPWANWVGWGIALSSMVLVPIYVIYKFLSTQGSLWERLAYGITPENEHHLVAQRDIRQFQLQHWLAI

Compound: 2-(Aminomethyl)-5-(3′-pyridinylethyl)tetrahydrofuran [Compound 15i]
Ki [1, 7]: > 10000 nM
IC50 ([2]; Table 9, mean ± SEM): > 10000 nM
IC50 ([3]; Table 9, mean ± SEM): > 10000 nM

Compound: COc1ccc(F)cc1[C@@H]1CC[C@H](CCN)O1 (relative stereo) [Compound 18d, Cis-2-aminoethyl-5-(2′-methoxy-5′-fluorophenyl)tetrahydrofuran]
Ki [1, 8]: > 10000 nM
IC50 ([2]; Table 10, mean): > 10000 nM

Compound: COc1ccc(F)cc1[C@H]1CC[C@H](CCN)O1 (stereo in doubt) [Compound 18c, Trans-2-aminoethyl-5-(2′-methoxy-5′-fluorophenyl)tetrahydrofuran]
Ki [1, 8]: 32900 nM
IC50 ([2]; Table 10, mean): > 10000 nM

Compound: NCC[C@@H](Oc1ccc(C(F)(F)F)cc1)c1ccccc1 [22(R), (R)-norfluoxetine, reference compound]
Ki [4, 9]: 7340 ± 1390 nM
IC50 ([2]; Table 17, mean ± S.E.M.): 7130 ± 891 nM
IC50 [3]: 2000 ± 518 nM

Compound: NCC[C@H](Oc1ccc(C(F)(F)F)cc1)c1ccccc1 [22(S), (S)-norfluoxetine, reference compound]
Ki [1, 8]: 4540 ± 1130 nM
Ki [4, 9]: 6530 ± 1190 nM
IC50 [3]: 2806 ± 22 nM

Compound: NCC1CCC(CCc2cccc3ccccc23)O1 (stereo not shown) [Compound 15a, 2-(Aminomethyl)-5-(1′-naphthethyl)tetrahydrofuran]
IC50 [3]: 3420 ± 655 nM

Compound: NCC1CCC(c2ccccc2)O1 (stereo not shown) [Compound 15b, 2-Aminomethyl-5-phenyltetrahydrofuran]
IC50 ([2]; Table 9, mean ± SEM): 147 ± 22.2 nM
potency at blocking hDAT reuptake [2]: considerable potency at blocking transporter reuptake
potency at blocking hNET reuptake [3]: considerable potency at blocking transporter reuptake
IC50 [3]: 23 ± 5 nM

Ki [1, 7]: 512 ± 33 nM
IC50 ([2]; Table 9, mean ± SEM): 28 ± 10 nM
IC50 ([3]; Table 9, mean ± SEM): 58.5 ± 13.8 nM
Compound: NCC1CCC(c2ccc3ccccc3c2)O1 (stereo not shown) [Compound 15c, 2-(Aminomethyl)-5-(2′-naphthyl)tetrahydrofuran]
potency at blocking hDAT reuptake [2]: considerable potency at blocking transporter reuptake
potency at blocking hNET reuptake ([3]; text of Example 28): considerable potency at blocking transporter reuptake

Ki [1, 7]: 1500 ± 278 nM
Ki [4, 10]: 2740 ± 480 nM
IC50 ([2]; Table 9, mean ± SEM): 513 ± 68 nM
IC50 ([3]; Table 9, mean ± SEM): 360 ± 14.8 nM
Compound: NCC1CCC(CCc2ccccc2)O1 (stereo not shown) [Compound 15d, 2-(Aminomethyl)-5-phenethyltetrahydrofuran]

Ki [1, 7]: 8520 ± 229 nM
IC50 ([2]; Table 9, mean ± SEM): 463 ± 119 nM
IC50 ([3]; Table 9, mean ± SEM): 210 ± 19.5 nM
Compound: NCC1CCC(c2cccc3ccccc23)O1 (stereo not shown) [Compound 15e, 2-(Aminomethyl)-5-(1′-naphthyl)tetrahydrofuran]

Compound: NCC1CCC(c2ccc(Cl)cc2)O1 (stereo not shown) [Compound 15f]
IC50 ([2]; Table 9, mean ± SEM): 313 ± 76.1 nM
potency at blocking hNET reuptake [3]: considerable potency at blocking transporter reuptake
IC50 [3]: 61.2 ± 18.9 nM

Ki [1, 7]: 6120 ± 895 nM
IC50 ([2]; Table 9, mean ± SEM): 167 ± 68.6 nM
IC50 ([3]; Table 9, mean ± SEM): 59.5 ± 20.5 nM
Compound: NCC1CCC(c2ccc(Br)cc2)O1 (stereo not shown) [Compound 15g]
potency at blocking hNET reuptake ([3]; text of Example 28): considerable potency at blocking transporter reuptake

IC50 ([2]; Table 9, mean ± SEM): 4590 ± 692 nM
Compound: NCC1CCC(CCc2c(F)c(F)c(F)c(F)c2F)O1 (stereo not shown) [Compound 15h, 2-Aminomethyl-5-pentafluorophenethyltetrahydrofuran]

Compound: COc1ccc(C2CCC(CN)O2)cc1 (stereo not shown) [Compound 15j, 2-Aminomethyl-5-(p-methoxyphenyl)tetrahydrofuran]
Ki [4, 10]: 2010 ± 67 nM
IC50 ([2]; Table 9, mean ± SEM): 668 ± 215 nM
IC50 ([3]; Table 9, mean ± SEM): 92 ± 29.5 nM

Compound: CC(C)(C)c1ccc(C2CCC(CN)O2)cc1 (stereo not shown) [Compound 15k, 2-Aminomethyl-5-(p-t-butylphenyl)tetrahydrofuran]
Ki [4, 10]: 4540 ± 266 nM
IC50 ([2]; Table 9, mean ± SEM): 4300 ± 919 nM
IC50 ([3]; Table 9, mean ± SEM): 2320 ± 801 nM

Compound: Cc1cc(CCC2CCC(CCN)O2)ccc1F (stereo not shown) [Compound 17c, 2-Aminoethyl-5-(4′-fluoro-3′-methylphenethyl)tetrahydrofuran]
Ki [4, 10]: 882 ± 22 nM
IC50 ([2]; Table 9, mean ± SEM): 509 ± 136 nM
IC50 ([3]; Table 9, mean ± SEM): 374 ± 110 nM

Compound: NCCC1CCC(Cc2ccccc2)O1 (stereo not shown) [Compound 17d, 2-(2′-aminoethyl)-5-benzyltetrahydrofuran]
IC50 ([2]; Table 9, mean ± SEM): 565 ± 154 nM
IC50 [3]: 347 ± 70.1 nM

Compound: NCCC1CCC(CCc2ccc(O)cc2)O1 (stereo not shown) [Compound 17e, 2-Aminoethyl-5-(4′-hydroxyphenethyl)tetrahydrofuran]
Ki [1, 7]: 5500 ± 381 nM
IC50 ([2]; Table 9, mean ± SEM): 2530 ± 298 nM
IC50 [3]: 2130 ± 345 nM

Compound: COc1ccc(F)cc1CCCC1CCC(CCN)O1 (stereo not drawn) [Compound 18p, Cis-2-aminoethyl-5-(3′-(2″-methoxy-5″-fluorophenyl)-1′-propyl)tetrahydrofuran]
Ki [1, 8]: 21200 nM
IC50 ([2]; Table 10, mean): 41300 nM

Compound: NCCC1CCC(CCc2ccccc2)O1 (stereo not shown) [MM-II-41]
Ki ([5]; Reuptake (Kr, nM) hNET, Table 1): 2930 nM and 3210 nM
Ki ([1]; Table 1, read-out: Binding (Ki, nM) hDAT): 6490 nM and 5110 nM
Ki ([4]; Table 1, read-out: Binding (Ki, nM) hNET): 7540 nM and 6380 nM
Ki ([6]; Reuptake (Kr, nM) hDAT, Table 1): 2780 nM and 2700 nM

Ki [5, 11]: 4180 nM
Ki [1, 12]: 2650 nM
Ki [4, 13]: 3030 nM
Ki [6, 14]: 2980 nM
Compound: COc1ccc(F)cc1C1CCC(CCNCCC2CCC(c3cc(F)ccc3OC)O2)O1 (stereo not drawn) [N,N-bis (cis-5′-(2″- methoxy-5″-fluoro-phenyl-2′-tetrahydro-furyl)ethyl) Amine]

Ki [5, 11]: 2290 nM
Ki [1, 12]: 75 nM
Ki [4, 13]: 1300 nM
Ki [6, 14]: 51 nM
Compound: c1ccc2cc(C3CCC(CCNCCC4CCC(c5ccc6ccccc6c5)O4)O3)ccc2c1 (stereo not shown) [N,N-bis(5′-(2″- naphthyl-2′-tetrahydro-furyl)ethyl) Amine]

Ki [5, 11]: > 10000 nM
Ki [1, 12]: 12300 nM
Ki [4, 13]: 7750 nM
Ki [6, 14]: > 10000 nM
Compound: c1cncc(CCC2CCC(CCNCCC3CCC(CCc4cccnc4)O3)O2)c1 (stereo not shown) [N,N-bis(5′-(3″- pyridyl-ethyl)-2′-tetra-hydro-furylethyl) amine]

Ki [5, 11]: 7680 nM
Ki [1, 12]: 798 nM
Ki [4, 13]: 1570 nM
Ki [6, 14]: 5740 nM
Compound: Cc1cc(CCC2CCC(CCNCCC3CCC(CCc4ccc(F)c(C)c4)O3)O2)ccc1F (stereo not shown) [N,N-bis(5′-(p-fluoro-m-methyl-phenethyl)-2′-tetra-hydro-furylethyl) amine]

Ki [5, 11]: 347 nM
Ki [1, 12]: 1310 nM
Ki [4, 13]: 605 nM
Ki [6, 14]: 564 nM
Compound: c1ccc(CC2CCC(CCNCCC3CCC(Cc4ccccc4)O3)O2)cc1 (stereo not shown) [N,N-bis(5′-benzyl-2′-tetrahydro-furyl)-2-ethyl) amine]

Ki [5, 11]: 1280 nM
Ki [1, 12]: 84 nM
Ki [4, 13]: 168 nM
Ki [6, 14]: 582 nM
Compound: CN(CCC1CCC(CCc2ccccc2)O1)CCC1CCC(CCc2ccccc2)O1 (stereo not shown) [N,N-bis(5′-phenethyl-2′-tetra-hydro-furylethyl) methyl-amine]

Ki [5, 11]: 169 nM
Ki [1, 12]: 30 nM and 18 nM
Ki [4, 13]: 379 nM and 361 nM
Ki [6, 14]: 1560 nM
Compound: c1ccc(CCC2CCC(CCNCCC3CCC(CCc4ccccc4)O3)O2)cc1 (stereo not shown) [N,N-bis(5′-phenethyl-2′-tetrahydro-furyl-ethyl) Amine]

Ki [5, 11]: 802 nM
Ki [1, 12]: 970 nM
Ki [4, 13]: 777 nM
Ki [6, 14]: 609 nM
Compound: c1ccc(C2CCC(CCNCCC3CCC(c4ccccc4)O3)O2)cc1 (stereo not shown) [N,N-bis(5′-phenyl-2′-tetrahydro-furyl-ethyl) amine]

Compound: N,N-bis(5′- (1″- naphth- ethyl)- 2′-tetra- hydro- furylethyl) amine
Ki [1, 12]: 1080 nM
Ki [4, 13]: 4340 nM
Ki ([2]; read-out: Reuptake (kup, nM) hDAT, Table 2): > 10000 nM
Ki ([3]; read-out: Reuptake (kup, nM) hNET, Table 2): > 10000 nM
